The values below come from the RNAGym collection of RNA variant scans (doi:10.7554/elife.90254).

Read counts are not given, so values of variants with three or more changes are uncertain.

The labels stand for the following.
B1: LINE1-full (parent)
chain: UACGUAGGUGGUUUUCCCCUGAUAGUGCUAAGGGGGCCUGGAAGUUUGGACUGGGCAGAGCUCAACACAGCGUGGCAAAGUGGCUGUGGCUAGACUGCCUCUCUGGAUUCCUCGUCACUCAGCAGGGCAUCUCUGAGAGAAAUGCC

The data set covers variants of B1. Nature of the data set: self-cleavage, relative activity (ratio to wild type); higher = more cleavage; in vitro, sequencing; the parent is a self-cleaving ribozyme.
Turning to A6G A57G G97A, the self-cleavage turned out to be 0.19. For A6G U9A U13C U39A U62C, the self-cleavage came out at 0.32. With G7A U100A U119C A136U A142G the figure was 1.2; with G7C U14C A69U U100A, 0.25. In the case of A6G U39A U62C A138G it was 0.1. On to A6G U13C A50G C90U G126A U130C, for which the self-cleavage turned out to be 0.18.

For the variant A6U A69U A77G, the self-cleavage stood at 0.18. In the case of A6G U73A A79G G83A A107G it was 0.99. With U5C U12A U81C C131U the figure was 2.76. With U5C U14C U96C G126U U134C A142G the figure was 0.38. Regarding A6G G44A U46C, the self-cleavage worked out at 0.6. In the case of A6U A31G A64U C68U U132A it was 0.2. With U5C U9G A22G C37G A65G G105A the figure was 0.6; with U5C U14C A141G, 1.51. In the case of A6G U46C A64U A67G U134A it was 0.5; in that of G7U U47C C116U, 1.33. As to G7A C38A A136G, the self-cleavage came to 1.01.

Turning to U5C U23C A77G, the self-cleavage was found to be 0.81. In the case of A6U U39C U102C it was 1.08. In the case of A6U U15C C19U A77G A138G it was 1.68; in that of A6G U62C A77U U102A, 0. In the case of A6G U62C U91A it was 0.33; in that of A6G G70U U108C A121G, 0.1.

With G7A A31G A117G, the self-cleavage is 0.92. For A6G G41A U130C, the self-cleavage stood at 1.28.

With A6G U12C A59U U73A, the self-cleavage was 0.79. With A6G A22G G75A U109C, the self-cleavage worked out at 0.34. In the case of A6U A43G A78U it was 1.39; in that of U5C U13C G35U, 0.73. With U5G A67C U81A the figure was 0.11; with A6U U15C G58A A69G G86A U100A U115C A141G, 0.03; with A6G A94G U108C U119A, 0.

Regarding U5C U12A C38U, the self-cleavage amounted to 1.15. Regarding U5C U73A U115C U130C, the self-cleavage came to 2.72. In the case of A6U U14A U85C U109C it was 0; in that of A6U A43G A59G U62C A129U, 0. With A6G U12C A65G A77G G127A the figure was 0.24. With U5C G32A A67G A77G A121U the figure was 0.21; with U5C U85A U96A, 0.16. Regarding G8A A42G U102C U115A, the self-cleavage was 1.15. With A6U A79G U96C A138G the figure was 0.35; with A6U U9G U39A U46C C99U A129U A141G, 1.01; with A6G U9C U45A U109A A142G, 1.13. With A6G A78G U143C the figure was 0.69. Consider A6G U52C U119C, for which the self-cleavage was found to be 0.

On to A6G U14C U26C A64G G89A A94G A136G, for which the self-cleavage worked out at 0.

On to U5C U46G A141G, for which the self-cleavage worked out at 0.8. As to A6G U52A C84U C116U A129U, the self-cleavage is 0.27. In the case of A6G A136U A140G it was 0.97; in that of G7U U112C A121G, 2.67; in that of U5C U9C U20C U109C, 1.53. With U5G U12C A124U the figure was 0.67; with G7A U29C U85C A140G, 0.11; with G7A U15A A64U U73C A136G, 0. On to A6G A30G U73C U109C C118U, for which the self-cleavage came out at 0. With A6G A22G A64U A67G U87A U102C the figure was 0; with U5C U39C U46C U85A, 0.23; with A6G C38A U39C U47A, 0.42. In the case of G7A U73C A117G it was 0.44; in that of G7U U100G U143A, 2.09; in that of A6G U108C U119C, 0.66. With A6G G35A G53A A64G U134C the figure was 0.2; with G7C U52A A138G, 1.96; with A6C U45C U115A A142G, 1.56. Consider A6U A57G G88U, for which the self-cleavage worked out at 0.12.

Take A6G G40C U132G A138G: the self-cleavage turned out to be 1.6. With A6U U62C A78G U132C the figure was 0; with A6G G32A U112C G114A, 0.84.

For the variant A6G U15C U46C U100C, the self-cleavage came to 0. Turning to G7U U47C G72A, the self-cleavage is 0.9.

Regarding U5G G74A U130C A140G, the self-cleavage came out at 0.21. With G7U U14C C17A G144A the figure was 1.45.

Turning to U5C U15A A69G, the self-cleavage was 0.36. With A6U U26A A64U A140G the figure was 0.1. With U5C U46C U119C the figure was 1.95; with G7A U12G G27A, 0.75; with A6G A79G A140G, 0.68. With A6G U9C A141G the figure was 0. Regarding A6G A65G U109C A117G, the self-cleavage is 0. As for A6G U15C U47A A69G, the self-cleavage was found to be 0. With A6U U47C A78G the figure was 0.71.

For A6G U62A A92C U119G, the self-cleavage was found to be 0.54. With A6U U20C U112C the figure was 0.72; with A6G U15A G93U U112C, 0.08. In the case of A6U U52C C116U it was 1.26.

On to U5C U85A U96C A121U A140G, for which the self-cleavage was found to be 0.23. In the case of A6U U12A A65C U73G A92G U109A it was 1.11; in that of A6U U15A A64G, 0.52; in that of A6U U73C A124G, 0.79. In the case of U5C U13C U102C A136G, the self-cleavage was determined as 0. Consider A6G A77G U109C A142G, for which the self-cleavage was determined as 0. As for A6G U14C A78G A121C U130A, the self-cleavage was 0.59. With A6G A64G U132A the figure was 0.52. In the case of U5C U81C A141G it was 0.86; in that of A6U U52C A79U A107U A141U, 1.76.

With A6G U108A A129U, the self-cleavage was determined as 0.78. With U5C U13A G35U the figure was 1.15. With A6U U29C A138G the figure was 0.41.

With U5C U39A U104A U112A A141G, the self-cleavage stood at 1.32. With U5C U26C C90U the figure was 0.21; with U5C U12C G75C A117G, 0.8. In the case of A6G U87A G105A C146U it was 0.32. In the case of A6G U104C U143A it was 1.33; in that of A6G U26C C103U A117U, 0.84; in that of G7A U14C U130C, 0.86. Consider A6G A50G U112C A129U A138G, for which the self-cleavage was 0. With A6G U12C U81A U119C the figure was 1.98.

Consider U5C G54A U115C, for which the self-cleavage is 1.08. With G7A U26A C56U A65G A138G the figure was 0; with A6U G7A U14C A50G A67G, 0.42. With A6U U9A A117G A124G A136U the figure was 0.88; with A6U G89U A124G, 0.05. For the variant A6G U81A U134C, the self-cleavage amounted to 1.16. As to G7C U13A U39A, the self-cleavage stood at 1.07. In the case of U5C U47A A79U A124U it was 1.71. With A6G U81A U108C the figure was 0.63. With A6G G32A A138U the figure was 0.9; with U5C U14C U39C, 0.71. For the variant A6G G21A A79G A94G U100C, the self-cleavage came to 0.

Turning to A6G G36A G44U A57U A78G U87A C118U, the self-cleavage is 0.07.

As for U5C G40A A57G U81A, the self-cleavage amounted to 0.36.

A6U G126A A136G: the self-cleavage was found to be 1.71. In the case of U5C U26G U47A A121U it was 1.16; in that of A6U G35C U102C, 1.74. With U5C U13G U39C U81A U108G A124G the figure was 0.61; with A6G A77G C90A A124G U132C, 0.12; with A6U U45A G48U, 1.08. With U5C U13G G36A U143C the figure was 0.79; with A6G A78G G125U, 1.08. Turning to A6G A69U A141G, the self-cleavage turned out to be 0.08. In the case of U5C G10A C37U A50G U73A U81C A92G it was 0.35; in that of A6G U47A G97A, 0.08; in that of U5C U14C A42G, 1.

For A6U U15C U47A U62C A142G, the self-cleavage came to 0.45.

With A6G U47A A65G A77G U115A, the self-cleavage was 0.99. With U5C U15C U26C A65G the figure was 0; with A6G U15C U115C, 1.67. With A6G U96A U100C the figure was 0; with U5G U52A A77G C90U U112C, 0.1.

A6G C18U A57G U112C: the self-cleavage amounted to 0.95. In the case of A6G A67C U85A it was 0.29; in that of G7A G105A U130C, 1.06. For G7U A59G A138G, the self-cleavage turned out to be 0.23.

A6C A50G U109C: the self-cleavage was determined as 0.3. In the case of A6G U12G A24G A79G it was 0.74. With G8A A43G A121G the figure was 1.84; with A6G A78G U102C A141G, 0.38; with A6C G32U G93U U102C A141G, 0.09.

Turning to G7A A43U U62C, the self-cleavage is 0.08. With U5C U12C U39C A65U U87C U104A the figure was 0. In the case of A6G U15C A78G U109A A141G it was 1.46. In the case of G7U A50G U87A U119A it was 0.08. For A6G A65U A69G U132G, the self-cleavage was 0.42. Take A6G U13C U100C: the self-cleavage was found to be 0.96.

As for A6G U47A U96C C113U U143A, the self-cleavage was found to be 0.09.

With A6G U62C A140G, the self-cleavage worked out at 0.4.

On to A6G U20C A42C A50G A77G G88A, for which the self-cleavage stood at 0.

Turning to G7A U13C A77G C131U, the self-cleavage amounted to 1.17. With A6G U39C U47A A138U, the self-cleavage came out at 1.15. As to U5C U62G A77G, the self-cleavage was determined as 0.21. For the variant A6U A79G G83U, the self-cleavage came out at 0.38.

Turning to A6G U81A U87G, the self-cleavage stood at 0.82. In the case of U5C U13C A22G U47C C61U U62A U132A it was 0.38.

Take U5C U104A A124C A129G: the self-cleavage worked out at 0. With A6G U26C U87C A136G the figure was 1.31; with U5C U52A A59G A142G, 0. In the case of A6G U9A U13C it was 1.31.
